The campaign covered roughly 310,000 compounds. About 2,200 (0.71%) showed an effect of 50% or more. Effects have a minus sign here. This is one part of the list.
molecular target: human ether-à-go-go-related gene (hERG) potassium channel (human, UniProt Q12809); assay: primary screen, population patch clamp on CHO cells stably expressing hERG
Sequence (Q12809 whole entry, looked up): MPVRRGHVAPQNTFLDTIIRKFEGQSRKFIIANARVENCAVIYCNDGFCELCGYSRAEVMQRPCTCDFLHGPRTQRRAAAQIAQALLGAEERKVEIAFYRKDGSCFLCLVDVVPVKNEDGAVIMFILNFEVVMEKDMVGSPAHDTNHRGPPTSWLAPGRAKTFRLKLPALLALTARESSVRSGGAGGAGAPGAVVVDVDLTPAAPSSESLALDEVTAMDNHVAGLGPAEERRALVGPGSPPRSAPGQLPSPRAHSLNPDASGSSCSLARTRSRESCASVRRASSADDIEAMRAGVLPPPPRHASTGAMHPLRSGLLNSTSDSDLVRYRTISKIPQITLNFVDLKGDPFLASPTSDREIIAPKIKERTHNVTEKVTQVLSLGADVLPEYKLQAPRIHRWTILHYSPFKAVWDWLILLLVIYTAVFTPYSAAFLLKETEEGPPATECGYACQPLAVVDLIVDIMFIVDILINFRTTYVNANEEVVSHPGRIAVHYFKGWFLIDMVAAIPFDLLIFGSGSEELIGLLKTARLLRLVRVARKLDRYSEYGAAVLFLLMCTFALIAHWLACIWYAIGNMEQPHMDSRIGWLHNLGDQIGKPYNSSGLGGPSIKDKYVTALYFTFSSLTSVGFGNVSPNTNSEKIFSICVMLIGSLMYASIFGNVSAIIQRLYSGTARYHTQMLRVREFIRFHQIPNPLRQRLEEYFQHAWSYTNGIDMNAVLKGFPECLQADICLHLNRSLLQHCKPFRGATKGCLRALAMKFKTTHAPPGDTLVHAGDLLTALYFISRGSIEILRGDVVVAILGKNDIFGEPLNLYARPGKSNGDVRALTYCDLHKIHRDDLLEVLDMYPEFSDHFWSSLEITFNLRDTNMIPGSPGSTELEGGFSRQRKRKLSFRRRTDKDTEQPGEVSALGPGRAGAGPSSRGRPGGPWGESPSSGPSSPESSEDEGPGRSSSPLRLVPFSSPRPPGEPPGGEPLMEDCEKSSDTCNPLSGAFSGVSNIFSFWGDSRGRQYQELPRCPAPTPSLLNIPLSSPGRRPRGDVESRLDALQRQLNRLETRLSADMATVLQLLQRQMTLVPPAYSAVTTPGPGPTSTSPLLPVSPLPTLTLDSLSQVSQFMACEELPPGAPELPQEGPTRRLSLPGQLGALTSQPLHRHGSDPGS

Compound | hERG current change (%, negative = inhibition) at 1uM [%]
CC(C)CCN(C(=O)Nc1ccccc1)C(C)c1cccs1 (centres unmarked) | 7.97
CCOC(=O)c1ccc(NC(=S)Nc2ccc(Br)cc2N)cc1 | 18.6
C=CCN1C2CCCC1CC(NC(=S)Nc1ccc(Cl)cc1)C2 (centres unmarked) | -6.84
COc1ccc(-n2c(SCC(=O)NCC3CCCO3)nc3c([nH]c4ccccc43)c2=O)cc1 (centres unmarked) | 17.3
CCOc1ccc(Br)cc1C(=O)Nc1ccc(C(=O)NCC(C)C)cc1 | -1.92
COC(=O)C1=CO[C@@H](C)[C@@H]2CN3CC[C@@]4(C(=O)Nc5ccccc54)[C@@H]3C[C@H]12 | 13.6
COc1ccc(Cl)cc1N1C(=O)CC(N2CCc3ccccc32)C1=O (centres unmarked) | 9.34
Cc1ccc(Oc2nc3ccccn3c(=O)c2/C=C(\C#N)C(=O)Nc2c(C)n(C)n(-c3ccccc3)c2=O)c(C)c1 | 13.5
O=c1ccc2ccc(Oc3ccc([N+](=O)[O-])cc3Cl)cc2o1 | 12.3
COc1ccc(S(=O)(=O)NC(C)C(=O)NCc2ccccn2)cc1Cl (centres unmarked) | 13.8
O=C(COc1ccc2ccc(=O)oc2c1)N1CCC(C(=O)O)(c2ccccc2)CC1 | 13.6
Cc1ccc(OCC(=O)Nc2ccccc2C(=O)NC2CC2)cc1 | 15.6
O=C(O)c1ccc(Cl)c(S(=O)(=O)Nc2cccc(C(=O)Nc3cccc(C(F)(F)F)c3)c2)c1 | 10.7
CCOc1ccc(CCNC(=O)C2CCCN(S(=O)(=O)c3c(C)n[nH]c3C)C2)cc1OCC (centres unmarked) | 7.56
O=C(CCCN1C(=O)C2C3C=CC(C3)C2C1=O)N1CCN(c2ccccc2)CC1 (centres unmarked) | 3.01
O=C(O)c1cc(OCc2ccccc2)cc(OCc2ccccc2)c1 | 11.1
CCn1c2ccccc2c2cc(NC(=O)CSc3nnc(-c4ccccc4)o3)ccc21 | 6.09
COc1ccc(CN(C)CCc2ccccn2)cc1OC.O=C(O)C(=O)O | 5.36
Cc1ccc(S(=O)(=O)Nc2cccc(C(=O)NCC3CCCO3)c2)cc1F (centres unmarked) | 15.3
CCOC(=O)C1=C(O)/C(=C/c2ccccn2)SC1=Nc1ccc(Cl)cc1 | 11.8
Cn1c(C2CCCCC2)nc2cc(N)ccc21 | 12.3
O=C(CCNC(=O)N1CC(=O)Nc2ccccc21)Nc1ccc(Br)cc1F | 15.9

Compound | hERG current change (%, negative = inhibition) at 1uM [%]
COc1ccccc1OCCNc1nc2c(c(=O)n(C)c(=O)n2C)n1C | 5.8
O=C(CCc1c[nH]c2ccccc12)NCC1COc2ccccc2O1 (centres unmarked) | 12.7
COCCNC(=O)CC(NS(=O)(=O)c1ccc(NC(C)=O)cc1)C(C)C (centres unmarked) | 1.01
CCc1ccc2oc(-c3cc(N)ccc3Cl)nc2c1 | 12
C#CCN(C(=O)c1cc(COc2cccc(C(F)(F)F)c2)on1)C1CCCCC1 | 9.83
CCN(CC)CCCN1C=C2C(=O)C(C)(OC(=O)CCc3ccccc3)C(=O)C=C2C=C1c1ccc(C#N)cc1 (centres unmarked) | 8.18
CCc1ccccc1NC(=O)C1CCCN(S(=O)(=O)c2c(C)noc2C)C1 (centres unmarked) | 15.8
Cc1cc(Oc2ccccc2)nc(SCC(=O)Nc2ccc(Cl)cc2Cl)n1 | 5.61
CCOc1ccc(N2CC(C(=O)Nc3nnc(Cc4ccccc4)s3)CC2=O)cc1 (centres unmarked) | 11.8
Cc1cc(Nc2ccc(Br)cc2F)n2nc(C)nc2n1 | -5.23
Cc1cnc(NC(=O)CN2C(=O)C3CC=CCC3C2=O)s1 (centres unmarked) | 32.5
CCCc1cc(C(=O)N/N=C/c2cccn2C)cs1 | 0.4
CCN(CC)CCC(=O)NC(C)(C)Cc1ccc(O)cc1 | 9.74
Cc1cc(C)nc(SCC(=O)N/N=C/c2ccc3c(c2)OCO3)n1 | 7.8
CCc1ccc2[nH]c3nc(C)cc(C)c3c(=O)c2c1 | 1.99
CC(C)=C1SC(N2CCN(c3ccc(C)cc3)CC2)=NC1=O | -9.9
O=C(NCCN1CCOCC1)c1ccc2c(c1)N(Cc1ccc(F)cc1)C(=O)CS2 | 12.8
COCCNC(=S)N/N=C(\C)c1cccc(C(F)(F)F)c1 | 14.4
Cc1ccc(NC(=O)C(c2ccccc2)N2CCN(CC(=O)NC3CC3)CC2)cc1Cl (centres unmarked) | -2.31
NC(=O)c1ccccc1NC(=O)COc1ccc2c(c1)OCO2 | 12.2
CCn1c(=O)c(C(=O)CN2CCN(S(=O)(=O)c3cc(C)ccc3C)CC2)c(N)n(Cc2ccccc2)c1=O | 12.1
O=C(NCc1cccnc1)C(=O)Nc1nc(C23CC4CC(CC(C4)C2)C3)cs1 | 14

Reference: article PMC4336329 (PLoS ONE, 2015)
